Test results from the RNAGym collection of RNA variant scans (doi:10.1101/gad.245936.114).
This sample is rich in variants without activity.

B1: tRNA (parent)
chain: CUCUCGGUAGCCAAGUUGGUUUAAGGCGCAAGACUUUAAUUUAUCACUACGAAAUCUUGAGAUCGGGCGUUCGACUCGCCCCCGGGAGAUUUUUUCCUCGAGCAA

Variants of: B1
Assay: nonsense suppression (GFP-seq) (ratio to wild type); higher = more function; SUP4oc tRNA, yeast GFP reporter sort-seq
Method in brief: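 Each variant's nonsense suppression (GFPSEQ) is a cell-share-weighted bin median GFP/RFP relative to the unmutated parent tRNA. Yeast with genome-integrated tRNA variants from a ~3% random-mutation library, a galactose-driven GFP ochre reporter and RFP were grown in raffinose/galactose medium with 80 mg/L adenine, then sorted into GFP/RFP bins for Illumina sequencing. Variants needed ≥100 reads and ≥30 cells.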

Variant	nonsense suppression
U8A A23C A54G C64U	≤ 0.026
U8A A23G C27G U58G C68A C79G G85C	≤ 0.026
U8A A23U A33G	≤ 0.026
U8A A24U C27A G28C U76A	≤ 0.026
U8A A24U G78A	≤ 0.026
U8A A30G	0.0404
U8A A30G U57A G78U G86A	≤ 0.026
U8A A30U A60G G61U	≤ 0.026
U8A A30U G61A U76G	≤ 0.026
U8A A31C C64G U71A	≤ 0.026
U8A A60G C64G	≤ 0.026
U8A A60G C77U	≤ 0.026
U8A A62U G78A	≤ 0.026
U8A A87G	≤ 0.026
U8A A89G	≤ 0.026
U8A C11A	≤ 0.026
U8A C11A G15A U20A U21G	≤ 0.026
U8A C11G	≤ 0.026
U8A C11U	≤ 0.026
U8A C12G	≤ 0.026
U8A C27G A54G C79U	≤ 0.026
U8A C27G G65C	≤ 0.026
U8A C27U A30C	≤ 0.026
U8A C29G U71C C72U	≤ 0.026

Variant	nonsense suppression
U8A C29U	≤ 0.026
U8A C34A C79U G85A	≤ 0.026
U8A C34A U76A G78C C81G G86C	≤ 0.026
U8A C34G A60C	≤ 0.026
U8A C56A A74G C81G A87G	≤ 0.026
U8A C56A G61A G84A G88U	≤ 0.026
U8A C56U	≤ 0.026
U8A C68G	≤ 0.026
U8A C77G	≤ 0.026
U8A C77U G88A	≤ 0.026
U8A C80G C83A	≤ 0.026
U8A C81A	≤ 0.026
U8A C82U C83A	≤ 0.026
U8A C83U	≤ 0.026
U8A G10C G61C G84C	≤ 0.026
U8A G10U A14G	≤ 0.026
U8A G10U U22C	≤ 0.026
U8A G15U G59A	≤ 0.026
U8A G15U U17C G85A	≤ 0.026
U8A G18A G59C C64U C75A C80U	≤ 0.026
U8A G18C A23U	≤ 0.026
U8A G18C G67C	≤ 0.026
U8A G18U A31G G85A A87C	≤ 0.026
U8A G19A G67A C83U	≤ 0.026

Variant	nonsense suppression
U8A G19C C34G	≤ 0.026
U8A G25C C64G	≤ 0.026
U8A G26A G84A	≤ 0.026
U8A G26U	≤ 0.026
U8A G28A A62C G84C	≤ 0.026
U8A G28U	≤ 0.026
U8A G28U C29U A60U C68U C82G	≤ 0.026
U8A G61C	≤ 0.026
U8A G65A G67A A74C A87U	≤ 0.026
U8A G67C U71G	≤ 0.026
U8A G78C	≤ 0.026
U8A G78U	≤ 0.026
U8A G85C	≤ 0.026
U8A G85U	0.071
U8A G88U	≤ 0.026
U8A U16G G61U C82U G88C	≤ 0.026
U8A U17G G67U C80U	≤ 0.026
U8A U20A A24C A54G U58G	≤ 0.026
U8A U20C C64G	≤ 0.026
U8A U21A	≤ 0.026
U8A U21A A23G C27U	≤ 0.026
U8A U21A A87C	≤ 0.026
U8A U21C A31U U55A G67A U70G	≤ 0.026
U8A U21C A33G C68G C83U	≤ 0.026

Variant	nonsense suppression
U8A U21C C56A C80G	≤ 0.026
U8A U21G G61U	≤ 0.026
U8A U55C	≤ 0.026
U8A U55G	≤ 0.026
U8A U63C G65C U76G	≤ 0.026
U8C A9U A54U	≤ 0.026
U8C A9U C11U G19A A54G C68U A74G	≤ 0.026
U8C A13C U21C G66C C83U A89U	≤ 0.026
U8C A13G C81A	≤ 0.026
U8C A13U C34U C79A	≤ 0.026
U8C A14C C34U	≤ 0.026
U8C A14G A60C	≤ 0.026
U8C A14G C81G	≤ 0.026
U8C A14U G69U	≤ 0.026
U8C A14U U35C	≤ 0.026
U8C A23G	≤ 0.026
U8C A24C A33C U71G	≤ 0.026
U8C A24C G78C	≤ 0.026
U8C A24C U58G G65A	≤ 0.026
U8C A24G G61C U76G C80G	≤ 0.026
U8C A24U	≤ 0.026
U8C A24U G26C G59C G88A	≤ 0.026
U8C A30C C75G	≤ 0.026
U8C A30C G65A U71G G86C	≤ 0.026

Variant	nonsense suppression
U8C A30U G84A	≤ 0.026
U8C A31G C75U	≤ 0.026
U8C A31U A87G	≤ 0.026
U8C A31U G65A	≤ 0.026
U8C A31U U63G G88U	≤ 0.026
U8C A33G G88C	≤ 0.026
U8C A33U	≤ 0.026
U8C A54G G59C A62G G84A	≤ 0.026
U8C A60G C77G	≤ 0.026
U8C A60U U63A C72G	≤ 0.026
U8C A62U G78C	≤ 0.026
U8C A74C C83U	≤ 0.026
U8C A87G G88A	≤ 0.026
U8C A89G	≤ 0.026
U8C C11A U71A A74U G88C	≤ 0.026
U8C C12G A74U C77A	≤ 0.026
U8C C12U U22C A33G G78U	≤ 0.026
U8C C27U A74G	≤ 0.026
U8C C29A G85U	≤ 0.026
U8C C29A U58G G73U	≤ 0.026
U8C C29G G73U U76G	≤ 0.026
U8C C29U A62C	≤ 0.026
U8C C29U U63A	≤ 0.026
U8C C56G	≤ 0.026

Variant	nonsense suppression
U8C C56G U58C C77G G88A	≤ 0.026
U8C C64A U70C	≤ 0.026
U8C C81G	≤ 0.026
U8C C83G	≤ 0.026
U8C G10A G15U	≤ 0.026
U8C G10A U55C G73A	≤ 0.026
U8C G10C A60G G61A	≤ 0.026
U8C G10C U17G	≤ 0.026
U8C G10U	≤ 0.026
U8C G15A A31G G86C	≤ 0.026
U8C G15A A31U	≤ 0.026
U8C G15C C81U	≤ 0.026
U8C G15U U17G A54C	≤ 0.026
U8C G19A C27G C34U G69A	≤ 0.026
U8C G19U U55C	≤ 0.026
U8C G25U C56G U58C C68G	≤ 0.026
U8C G25U U58C G61U G78C	≤ 0.026
U8C G28A A31G C81G	≤ 0.026
U8C G28C	0.0327
U8C G32A C83G G84A	≤ 0.026
U8C G32C G65C C77A	≤ 0.026
U8C G32U U58A A62C A74U G88U	≤ 0.026
U8C G59C	≤ 0.026
U8C G61A C72A	≤ 0.026

Variant	nonsense suppression
U8C G61A C80U	≤ 0.026
U8C G61U	≤ 0.026
U8C G65A C72U	≤ 0.026
U8C G66A U70G C77U	≤ 0.026
U8C G69C	≤ 0.026
U8C G73C C81G A87G	≤ 0.026
U8C G78A	≤ 0.026
U8C G84A	≤ 0.026
U8C G84C	≤ 0.026
U8C G85U	0.0537
U8C G86C	≤ 0.026
U8C G86U	≤ 0.026
U8C U16A A30C A54C	≤ 0.026
U8C U16A G61A	≤ 0.026
U8C U16G G78A	≤ 0.026
U8C U17A	≤ 0.026
U8C U20A A23C G73C	≤ 0.026
U8C U20C U22A A33C A62C C82G	≤ 0.026
U8C U20G A74G	≤ 0.026
U8C U21A	≤ 0.026
U8C U21A A60U	≤ 0.026
U8C U21A G78U	≤ 0.026
U8C U21A U55A C75G C82G G86A	≤ 0.026
